Assay results reported in PubChem BioAssay AID588855 (National Center for Advancing Translational Sciences (NCATS), 2011).
Out of some 410,000 compounds screened, about 5,000 (1.2%) were called active. The inconclusive results got no clear call from the source; some entries with a clear call stand among them for comparison. Calls follow the shape of the dose curve; as a rule, active = well fitted inhibition curve with a large enough effect; inconclusive = small, poorly fitted or top-dose-only effect; inactive = no such curve, though single readings can be large or run the other way. Potencies beside an inconclusive call are fits to weak or partial responses and may not hold up.

Assay: qHTS for Inhibitors of TGF-b; also: nearly all actives have a fitted effect of over 65% in size
Details: HepG2 CAGA-GFP TGF-b/SMAD3 reporter, GFP fluorescence, 18 h, TGF-beta stimulated, 500 pg/mL final; series mostly up to 46.1 µM; activity, negative = inhibition: at the top concentration
In short: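 Inhibition was scored as loss of TGF-beta-induced (500 pg/mL final, 18 hours, 37 degrees C) GFP in HEPG2 cells carrying a CAGA-GFP reporter, in DMEM with 1% FBS. Well GFP was summed per cell; Activity was normalised to unstimulated and stimulated DMSO wells, then concentration-response fitting.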
% is scaled to controls: 0 for no effect and ±100 for the full control effect; potency is read from the fitted curve at half-maximal effect; tags tell the direction and shape of the fitted curve.

Question: With `COc1ccc(OC)c(/C=C2\SC(N3CCCCC3)=NC2=O)c1` as the compound, how does the “activity, negative = inhibition” value read?
Answer: inactive: -14.3%

Question: For `O=C(NNC(=O)C12CC3CC(CC(C3)C1)C2)c1ccccn1`, which Potency is on record?
Answer: inconclusive: 35.5 µM [inhibitor, single point]

Question: For `COc1cccc(NC(=O)Cn2c(=O)n(CCc3cccc(C)c3)c(=O)c3ccccc32)c1`, which Potency is on record?
Answer: inconclusive: 25.1 µM [inhibitor, single point]

Question: Which “activity, negative = inhibition” value does the source give for `Cc1cccc(NC(=O)c2c(NC(=O)c3ccco3)sc3c2CCC(C)C3)c1` (stereo not drawn) here?
Answer: inactive: 0.915%

Question: Which Potency does the source give for `C=CCOc1ccc(C(c2c(C(=O)O)[nH]c3ccccc23)c2c(C(=O)O)[nH]c3ccccc23)cc1` here?
Answer: inconclusive: 8.91 µM [inhibitor, partial curve, poor fit]

Question: With `CCOc1ccc(-c2nc(CN3CCCC(C(=O)N4CCOCC4)C3)c(C)o2)cc1` (stereo not drawn) as the compound, how does the “activity, negative = inhibition” value read?
Answer: inactive: 11.1%

Question: Which Potency does the source give for `CN(C(=O)c1ccc(Oc2ccc([N+](=O)[O-])cc2)cc1)C1CCCCC1` here?
Answer: inconclusive: 5.01 µM [inhibitor, full curve, poor fit]

Question: Which Potency does the source give for `CC(=O)Nc1cccc(Nc2nc(-c3cccs3)nc3ccccc23)c1` here?
Answer: inconclusive: 35.5 µM [inhibitor, single point]

Question: Which “activity, negative = inhibition” value does the source give for `COc1ccc(C=NNC(=O)CCCC(=O)NN=Cc2ccc(OC)c(OC)c2)cc1OC` here?
Answer: inactive: 0%

Question: For `Cc1ccc(S(=O)(=O)N2CCOCC2)cc1NC(=O)CSCc1c(C)noc1C`, which “activity, negative = inhibition” value is on record?
Answer: inactive: 6.85%

Question: With `N#Cc1ccc(OCCOCCNC2CCCC2)cc1` as the compound, how does the “activity, negative = inhibition” value read?
Answer: inactive: 3.5%

Question: With `COc1ccccc1CNC(=O)CSc1cc(C)[nH]c(=O)n1` as the compound, how does the Potency read?
Answer: inconclusive: 6.31 µM [inhibitor, single point]

Question: For `O=C(Nc1cccc(-c2cccc(Cl)c2)c1)C1CCN(Cc2ccc(CO)o2)CC1`, which Potency is on record?
Answer: inconclusive: 28.2 µM [inhibitor, single point]

Question: For `COc1ccc(-c2c(C)nn3c(N4CCN(c5cc(Cl)ccc5C)CC4)cc(C)nc23)cc1OC`, which Potency is on record?
Answer: inconclusive: 8.91 µM [inhibitor, partial curve, poor fit]

Question: For `CCOCCCNC(=S)N1CCN(c2nc(-c3ccccc3)cs2)CC1`, which Potency is on record?
Answer: inconclusive: 12.6 µM [inhibitor, partial curve]

Question: With `CC(=O)Nc1ccccc1-c1nc2ccc(C(=O)N3CCN(c4cc(C)ccc4C)CC3)cc2[nH]c1=O` as the compound, how does the “activity, negative = inhibition” value read?
Answer: inactive: 5.57%

Question: With `O=C(NCCS(=O)(=O)N1CCN(c2ccccc2F)CC1)c1cccs1` as the compound, how does the “activity, negative = inhibition” value read?
Answer: inactive: -6.54%

Question: Which Potency does the source give for `C/C(=N\NC(=O)c1ccc(CN2CCc3ccccc3C2)cc1)c1ccccc1O` here?
Answer: inconclusive: 8.91 µM [inhibitor, partial curve]

Question: With `CC/C(=C\C(=O)c1ccncc1)Nc1ccc(O)cc1` as the compound, how does the Potency read?
Answer: inconclusive: 35.5 µM [inhibitor, single point]

Question: For `CCS(=O)(=O)c1nc(S(=O)(=O)c2ccc(Cl)cc2)c(N2CCOCC2)s1`, which “activity, negative = inhibition” value is on record?
Answer: inactive: -0.722%

Question: For `Cc1ccc(CNC(=O)CSCc2nc(-c3cccc(C)c3)oc2C)cc1`, which Potency is on record?
Answer: inconclusive: 15.8 µM [inhibitor, single point]

Question: Which Potency does the source give for `C#CCN(C(=O)c1cc(COc2cccc(C(F)(F)F)c2)on1)C1CCCCC1` here?
Answer: inconclusive: 35.5 µM [inhibitor, single point]

Question: With `CCC(C)c1ccc(C2C3=C(Nc4nc(N)[nH]c(=O)c42)c2ccccc2C3=O)cc1` (stereo not drawn) as the compound, how does the Potency read?
Answer: inconclusive: 22.4 µM [inhibitor, single point]

Question: With `COC(=O)[C@@H]1[C@@H](C#N)C2(c3ccccc3-c3ccccc32)N(c2ccc(Cl)cc2)N1C#N` as the compound, how does the Potency read?
Answer: inconclusive: 10 µM [inhibitor, partial curve, poor fit]

Question: For `CCC(NC(=O)Nc1cccc(C)c1)c1c(-n2cccc2)sc2c1CCN(C)C2` (stereo not drawn), which Potency is on record?
Answer: inconclusive: 20 µM [inhibitor, single point]

Question: For `COc1ccccc1NC(=O)C(=O)c1cn(CC(=O)N2CCOCC2)c2ccccc12`, which “activity, negative = inhibition” value is on record?
Answer: inactive: -13.9%

Question: For `CCOC(=O)c1ccc(NC(=S)N2CCSC2c2ccc(Cl)cc2)cc1` (stereo not drawn), which “activity, negative = inhibition” value is on record?
Answer: inactive: 3.35%

Question: For `C[C@@H]1CC[C@]2(C(=O)O)CC[C@]3(C)C(=CCC4[C@]56CC[C@@](O)(OC5)C(C)(C)C6CC[C@]43C)C2[C@H]1C` (stereo partly drawn), which Potency is on record?
Answer: inconclusive: 25.1 µM [inhibitor, single point]

Question: For `Cc1cccc(N2C(=O)N3[C@H](c4ccc(F)cc4)[C@@H]4C(=O)N(C5CCCCC5)C(=O)[C@@H]4[C@]3(Cc3ccc(Cl)cc3)C2=O)c1`, which Potency is on record?
Answer: inconclusive: 5.01 µM [inhibitor, single point]

Question: With `Cc1ccc(-c2nc(N)sc2C)cc1` as the compound, how does the Potency read?
Answer: inconclusive: 35.5 µM [inhibitor, single point]

Question: Which Potency does the source give for `CC(C)c1[nH]nc2c1C(c1cccs1)C(C#N)=C(N)O2` (stereo not drawn) here?
Answer: inconclusive: 35.5 µM [inhibitor, single point]

Question: Which Potency does the source give for `O=C(N/N=C/c1ccc([N+](=O)[O-])s1)c1ccncc1` here?
Answer: inconclusive: 15.8 µM [inhibitor, partial curve, poor fit]

Question: For `CCOC(=O)N1CCC(=NNC(=O)Cn2ccc(C(F)(F)F)n2)CC1`, which Potency is on record?
Answer: inconclusive: 6.31 µM [inhibitor, single point]

Question: For `O=C(CCc1nc(-c2cccs2)no1)Nc1ccc([N+](=O)[O-])cc1`, which Potency is on record?
Answer: inconclusive: 14.1 µM [inhibitor, single point]

Question: Which “activity, negative = inhibition” value does the source give for `CCc1nc2ccccc2c2nc3ccccc3n12` here?
Answer: inactive: -10%

Question: With `CC(C)c1ccc(/C=C/C(=O)Nc2nncs2)cc1` as the compound, how does the Potency read?
Answer: inconclusive: 6.31 µM [inhibitor, full curve]

Question: With `Cc1noc(NS(=O)(=O)c2ccc(NC(=O)C34CC5CC(C3)CC(n3cnc(Cl)n3)(C5)C4)cc2)c1C` as the compound, how does the Potency read?
Answer: inconclusive: 5.62 µM [inhibitor, single point]

Question: For `CCCS(=O)(=O)NC(=O)C1(C)CCN(C(=O)c2c(C)noc2C)C1` (stereo not drawn), which “activity, negative = inhibition” value is on record?
Answer: inactive: -10.8%

Question: With `Cc1occc1C(=O)NCc1cccs1` as the compound, how does the “activity, negative = inhibition” value read?
Answer: inactive: -5.86%

Question: Which Potency does the source give for `CCc1ccccc1N(CC)C(=O)Cn1nc(Cc2ccncc2)c2ccccc2c1=O` here?
Answer: inconclusive: 22.4 µM [inhibitor, partial curve, poor fit]

Question: Which Potency does the source give for `Cc1ccc2[nH]c(=O)c(CN(Cc3cccs3)S(=O)(=O)c3ccc4c(c3)OCCO4)cc2c1` here?
Answer: inconclusive: 3.98 µM [inhibitor, partial curve, poor fit]

Question: Which “activity, negative = inhibition” value does the source give for `NNC(=O)CNc1ccccc1Cl` here?
Answer: inactive: 59.5%

Question: For `Cc1ccc(S(=O)(=O)C(CNS(=O)(=O)c2ccc(F)c(C)c2)c2cccs2)cc1` (stereo not drawn), which Potency is on record?
Answer: inconclusive: 14.1 µM [inhibitor, single point]

Question: Which Potency does the source give for `CC(C)(C)[C@H]1C=C(C(=O)N2CCN(Cc3ccccc3)CC2)O[C@@H](OCCCCO)C1` here?
Answer: inconclusive: 3.98 µM [inhibitor, partial curve, poor fit]

Question: Which Potency does the source give for `CCCCOc1ccc(C(=O)Nc2ccc3c(c2)CCCN3S(=O)(=O)c2ccc(C)cc2)cc1` here?
Answer: inconclusive: 1.41 µM [inhibitor, full curve, poor fit]

Question: Which Potency does the source give for `CCOc1cccc2sc(N(CCCN(C)C)C(=O)c3ccc(C(=O)c4ccccc4)cc3)nc12` here?
Answer: inconclusive: 35.5 µM [inhibitor, single point]

Question: Which “activity, negative = inhibition” value does the source give for `O=C(Nc1ncc2c(n1)CC(c1ccccc1)CC2=O)c1ccco1` (stereo not drawn) here?
Answer: inactive: -2.47%

Question: Which “activity, negative = inhibition” value does the source give for `CN(C)CCN(C)Cc1c2ccccc2c(CN(C)CCN(C)C)c2ccccc12` here?
Answer: inactive: 2.86%

Question: For `CC(=O)N(C1CC(C)C(C#N)(C#N)C1(C#N)C#N)N(C)C` (stereo not drawn), which Potency is on record?
Answer: inconclusive: 15.8 µM [inhibitor, single point]

Question: Which Potency does the source give for `C/C(=N\NC(=O)C1CC1)c1ccc(Cl)c(Cl)c1` here?
Answer: inconclusive: 35.5 µM [inhibitor, single point]

Question: Which “activity, negative = inhibition” value does the source give for `CC(=O)c1cccc(NC(=O)CCC(=O)Oc2ccc(C)cc2)c1` here?
Answer: inactive: -0.744%

Question: With `CC(Sc1ccc(S(=O)(=O)N2CCN(C)CC2)cn1)C(=O)NC1(C#N)CCCCC1` (stereo not drawn) as the compound, how does the Potency read?
Answer: inconclusive: 14.1 µM [inhibitor, partial curve, poor fit]

Question: For `NS(=O)(=O)c1ccc(N2N=C(c3ccccc3)CC2c2ccccc2Cl)cc1` (stereo not drawn), which Potency is on record?
Answer: inconclusive: 31.6 µM [inhibitor, single point]

Question: Which Potency does the source give for `CCCC[C@@H]1C=C(C(=O)O)[C@H](c2ccc(C)cc2)N1S(=O)(=O)c1ccc(C)cc1` here?
Answer: inconclusive: 2.24 µM [inhibitor, partial curve, poor fit]

Question: For `CCCCOc1ccc(N(CC(=O)NCc2ccccc2)C(=O)c2csnn2)cc1`, which “activity, negative = inhibition” value is on record?
Answer: inactive: -4.31%

Question: With `CCCCN(CC)Cc1ccc(CNS(=O)(=O)c2cc3c(cc2Cl)NC(=O)CO3)o1` as the compound, how does the “activity, negative = inhibition” value read?
Answer: inactive: -11.4%

Question: For `O=C(NCCc1ccccc1)c1n[nH]c2ccccc12`, which “activity, negative = inhibition” value is on record?
Answer: inactive: -7.06%

Question: With `Cc1ccc(N2CC(C(=O)NCc3nnnn3-c3ccc(C)c(C)c3)CC2=O)cc1` (stereo not drawn) as the compound, how does the Potency read?
Answer: inconclusive: 35.5 µM [inhibitor, partial curve, poor fit]

Question: With `Oc1cccc2c(CC(O)c3c[nH]c4ccccc34)ccnc12` (stereo not drawn) as the compound, how does the Potency read?
Answer: inconclusive: 25.1 µM [inhibitor, single point]

Question: For `CCc1nc2c(OCc3ccccc3)cccn2c1N(C)C(C)=O`, which “activity, negative = inhibition” value is on record?
Answer: inactive: 8.24%

Question: For `CC(/C=N/NC(=O)c1cc(C(C)(C)C)[nH]n1)=C\c1ccccc1`, which “activity, negative = inhibition” value is on record?
Answer: inactive: 34.1%

Question: For `C=COC(=O)NC1CCc2cc(OC)c(OC)c(OC)c2-c2ccc(SC)c(=O)cc21` (stereo not drawn), which Potency is on record?
Answer: inconclusive: 0.0447 µM [inhibitor, full curve, poor fit]

Question: Which Potency does the source give for `CC/C(=C\c1ccc(N(C)C)cc1)c1ccncc1` here?
Answer: inconclusive: 35.5 µM [inhibitor, single point]

Question: For `CCNC(=S)NC(=NCc1cccnc1)Nc1nc(C)cc(C)n1`, which “activity, negative = inhibition” value is on record?
Answer: inactive: 12.3%

Question: Which Potency does the source give for `C=CCn1c(N)c(-c2nc3ccccc3n2C)sc1=S` here?
Answer: inconclusive: 2.24 µM [inhibitor, partial curve, poor fit]

Question: Which “activity, negative = inhibition” value does the source give for `COc1ccc(Nc2nnc(SC(C(=O)Nc3cc(C)ccc3C)c3ccccc3)s2)cc1` (stereo not drawn) here?
Answer: inactive: -5.71%

Question: With `CCN1CCN(C(CNS(=O)(=O)c2ccc(OC)c(C)c2)c2cccnc2)CC1` (stereo not drawn) as the compound, how does the “activity, negative = inhibition” value read?
Answer: inactive: 11.6%

Question: Which “activity, negative = inhibition” value does the source give for `Cc1ccc(Cn2c(C(=O)NCCCN3CCOCC3)cc3sccc32)cc1` here?
Answer: inactive: 0%
